In ChEMBL document CHEMBL4888484, “Replenishing the malaria drug discovery pipeline: Screening and hit evaluation of the MMV Hit Generation Library 1 (HGL1) against asexual blood stage Plasmodium falciparum ,using a nano luciferase reporter read-out” (2022):
In all, about 4,800 compounds went through this assay and about 420 (8.8%) showed an effect of 50% or more. The list shows a part of the results.

test system: Plasmodium falciparum; experiment: Confirmatory screen in NF54 nanoGlo assay, in single point, at 2uM, 72h; assay type: functional, Erythrocyte; conditions: timepoint 72 hour

Which “% Inhibition” value does the source give for `Cc1nn(C)c(=O)n1-c1ccc(Oc2ccccc2)cc1` here?
The value was -4%.

With `COCC(=O)N[C@H]1CC[C@H](CO)CC1` as the molecule, how does the “% Inhibition” value read?
The value was 1%.

Which “% Inhibition” value does the source give for `Cc1nn(C)c(Oc2cccc(F)c2)c1NC(=O)CC(C)C` here?
The value was 8%.

Which “% Inhibition” value does the source give for `CC1CCC2C(C1)c1c(nc(O)n(-c3ccccc3)c1=O)OC2(C)C` (centres undefined) here?
Its value is 8%.

`COc1ccc2c(c1)CN(Cc1ccccc1Cl)CC[C@H]1COC(=O)N21` was tested. Which “% Inhibition” value did it give?
Its value is 11%.

With `CC(C)Oc1nccnc1NC[C@](C)(O)c1cccc(Cl)c1` as the molecule, how does the “% Inhibition” value read?
Its value is -7%.

Which “% Inhibition” value does the source give for `CCn1cc(Cl)c(C(=O)N(C2CCCCC2)C2CCCCC2)n1` here?
The value was 7%.

Which “% Inhibition” value does the source give for `COc1ccc2oc(-c3ccc(CNC(=O)c4cccnc4)cc3)nc2c1` here?
The value was 2%.

Which “% Inhibition” value does the source give for `O=S(=O)(Nc1ccc2nncn2c1)c1c(F)cccc1Cl` here?
Its value is -17%.

Which “% Inhibition” value does the source give for `Cc1ccsc1-c1noc([C@@H]2COCCN2C)n1` here?
The value was -7%.

For `NC(=O)c1cc(Cl)c(Cl)c(Cl)c1`, which “% Inhibition” value is on record?
Its value is -18%.

Which “% Inhibition” value does the source give for `Cc1ccc(Oc2ccccc2CNC(=O)[C@@H]2CCC(=O)N2)cc1` here?
Its value is -6%.

Which “% Inhibition” value does the source give for `CC1CCC(N(CC(=O)NC(N)=O)C2CC2)CC1` (centres undefined) here?
Its value is 1%.

Which “% Inhibition” value does the source give for `CCC1CCCC(NS(=O)(=O)CCC(C)(C)C)C1` (centres undefined) here?
Its value is -13%.

For `CCN1C(=O)CN(C(=O)c2cccc(C)c2)CC12CCOCC2`, which “% Inhibition” value is on record?
The value was -1%.

Which “% Inhibition” value does the source give for `CCC(NC(=O)c1c[nH]c(C)cc1=O)C(O)c1ccccc1F` (centres undefined) here?
Its value is 4%.

Which “% Inhibition” value does the source give for `COc1cccc(-c2cc(C(=O)N3CCCN(C(=O)c4cc(-c5cccc(OC)c5)nc5ccccc45)CC3)c3ccccc3n2)c1` here?
Its value is -1%.

For `Cc1nc2cccnc2n1-c1cc(C(=O)NCC[C@H](C)N2CCCC2)ccc1Cl`, which “% Inhibition” value is on record?
The value was 0%.

With `CCn1ccc(CN(C)C(=O)[C@H]2CCCN(S(=O)(=O)c3cnn(C)c3C)C2)n1` as the molecule, how does the “% Inhibition” value read?
Its value is -12%.

For `CC(N=C1NC(=NC(C)c2ccccc2)c2ccccc21)c1ccccc1` (centres undefined), which “% Inhibition” value is on record?
The value was 17%.

`CNc1c(-n2cc(C(=O)OC)c(C(=O)OC)c2C#N)c(=O)n(C)c(=O)n1C` was tested. Which “% Inhibition” value did it give?
Its value is -12%.

`CC(C)(C)c1ccc(C(=O)C(=O)NC[C@H]2CCCO2)cc1` was tested. Which “% Inhibition” value did it give?
The value was -16%.

For `Cc1ccc2c(c1)ncc1c(-c3ccccc3)nn(-c3ccc(F)cc3)c12`, which “% Inhibition” value is on record?
Its value is -5%.

With `O=C(Nc1cc(C(F)(F)F)ccc1Cl)C1CCC(N2C(=O)c3cc(Cl)c(Cl)cc3C2=O)CC1` (centres undefined) as the molecule, how does the “% Inhibition” value read?
Its value is -7%.

With `Cn1c(CN2CCOC[C@@]23CCOC3)nnc1C1CC1` as the molecule, how does the “% Inhibition” value read?
Its value is 7%.

How did the “% Inhibition” value turn out when `C[C@H](c1ccccc1)N1C(=O)[C@@H]2CN(C(=O)CC(C)(C)C)CCN2C1=O` was run?
Its value is -7%.

`Cc1nnc(NC(=O)c2ccc3n[nH]c(=O)n3c2)s1` was tested. Which “% Inhibition” value did it give?
The value was -9%.

How did the “% Inhibition” value turn out when `Cc1cc(C)cc(-n2c(=O)c3sccc3n(CC(=O)N[C@@H](C)CCc3ccccc3)c2=O)c1` was run?
The value was -9%.

`O=C(Cn1nnc2c1CCCC2)NCc1ccc2cc[nH]c2n1` was tested. Which “% Inhibition” value did it give?
The value was 2%.

With `COc1cc(C)sc1C(=O)NCc1csc(=O)[nH]1` as the molecule, how does the “% Inhibition” value read?
The value was -6%.

`Cc1ccc(C)c(-n2c(=O)c3sccc3n(CC(=O)N3CC(C)CC(C)C3)c2=O)c1` (centres undefined) was tested. Which “% Inhibition” value did it give?
The value was 2%.

With `Cc1cc2ncn(CN3CC[C@@H](NC(=O)OC(C)(C)C)C3)c2cc1C` as the molecule, how does the “% Inhibition” value read?
The value was -19%.

For `O=C1Nc2ccc(-c3ccccc3)cc2[C@@]1(O)C(F)(F)F`, which “% Inhibition” value is on record?
Its value is 6%.

Which “% Inhibition” value does the source give for `COc1cc2ncc3c(-c4ccc(C)c(C)c4)n[nH]c3c2cc1OC` here?
The value was 33%.

For `CCn1cc(C)c(C(=O)O)c1CC(=O)NCc1ccc(F)cc1`, which “% Inhibition” value is on record?
The value was -12%.

With `c1cc(CN2CCC3(CC2)OCCO3)c2c(c1)OCCO2` as the molecule, how does the “% Inhibition” value read?
Its value is -1%.

For `C[C@H](NC(=O)c1cc(-c2ccc(F)cc2)ns1)c1ccccn1`, which “% Inhibition” value is on record?
Its value is -1%.

How did the “% Inhibition” value turn out when `Cc1cc(C)cc(NC(=O)Cc2nnc3ccc(C(=O)Nc4ccccc4)cn23)c1` was run?
The value was 0%.

`CC(C)CC(=O)N1CC[C@H](CC(=O)NCc2ccccc2)C1` was tested. Which “% Inhibition” value did it give?
Its value is 1%.

For `COc1ccc2cc3n(c2c1)C[C@](C(=O)NC1CCCCCC1)(c1ccccc1)N(Cc1cccc(Br)c1)C3=O`, which “% Inhibition” value is on record?
Its value is 2%.

For `CCOc1ccc([C@@H](Nc2nc(C)cc(C)n2)c2cc(C)sc2NC(=O)c2ccccc2)cc1`, which “% Inhibition” value is on record?
The value was 1%.

For `COC(=O)c1ccc(N(Cc2ccccc2O)c2ncc(C(F)(F)F)cc2Cl)c(F)c1`, which “% Inhibition” value is on record?
Its value is -11%.

Which “% Inhibition” value does the source give for `O=S(=O)(c1ccc(Cl)cc1)n1ccc(C2CC2)n1` here?
Its value is -7%.

For `Cc1nc([C@@H](NC(=O)c2cc(Cl)cn2C)c2cnn(C)c2)no1`, which “% Inhibition” value is on record?
Its value is -9%.

How did the “% Inhibition” value turn out when `CC(=O)c1nc2cc(F)c(N3CCOCC3)cc2nc1C` was run?
Its value is -11%.

How did the “% Inhibition” value turn out when `CCOc1ccc2c(n1)CCN(C(=O)c1ccc(OC)cc1)C2` was run?
Its value is -13%.

`COc1cccc2nc(C[C@H]3CN(CC(C)C)CC[C@H]3CC(=O)O)[nH]c12` was tested. Which “% Inhibition” value did it give?
The value was -9%.

For `CCOC(=O)CC1(S(=O)(=O)Nc2cccc3ccccc23)CC1`, which “% Inhibition” value is on record?
The value was 0%.

`CCN(CC)c1nc(Nc2ccc(Cl)c(Cl)c2)nc(Nc2cc(C)ccc2C)n1` was tested. Which “% Inhibition” value did it give?
Its value is 1%.

For `O=C(COc1ccc(F)cc1)N1CCc2nc(OCC3CC3)ccc2C1`, which “% Inhibition” value is on record?
Its value is -7%.

For `CCN(CC)[C@@H](CNC(=O)CCc1c(C)nn(C)c1C)c1ccco1`, which “% Inhibition” value is on record?
The value was 0%.

With `O=C(NC1CCCC1)c1n[nH]c(=O)c2ccccc12` as the molecule, how does the “% Inhibition” value read?
Its value is 1%.

With `Cc1cccc(NC(=O)CCC(=O)OCC(F)(F)F)c1C` as the molecule, how does the “% Inhibition” value read?
The value was -11%.

With `Cc1ccc(NC(=O)N2CCCN(c3ccc(NC(=O)c4cccs4)cc3C(=O)NCc3ccc(F)cc3)CC2)cc1` as the molecule, how does the “% Inhibition” value read?
Its value is 43%.

For `Clc1ccc2c(c1)CC[C@@H]2NCc1nnc2n1CCC2`, which “% Inhibition” value is on record?
The value was -6%.

With `COc1ccc(CCN[C@@H]2c3ccccc3C(=O)N2C2CCCCC2)cc1OC` as the molecule, how does the “% Inhibition” value read?
Its value is 2%.

For `COc1ccc(C(=O)Nc2cnccc2-n2nc(C)cc2C)cc1`, which “% Inhibition” value is on record?
The value was 4%.

How did the “% Inhibition” value turn out when `Cc1ccc(NC(=O)c2ccc3c(-c4ccccc4)onc3c2)cc1` was run?
Its value is -22%.

With `Cc1nc(Cn2nnc(NC(=O)c3cccc(F)c3)c2C)no1` as the molecule, how does the “% Inhibition” value read?
Its value is 1%.

With `Cc1nc2cccnc2n1-c1cc(C(=O)NCc2ccccc2Cl)ccc1Cl` as the molecule, how does the “% Inhibition” value read?
The value was -2%.

How did the “% Inhibition” value turn out when `Cn1nc(C2CC2)c2c(C(F)(F)F)cc(-c3ccco3)nc21` was run?
Its value is -2%.

For `CC(C)c1cc(CNC(=O)N2CCCC[C@H]2c2cccc(F)c2)no1`, which “% Inhibition” value is on record?
The value was 25%.

How did the “% Inhibition” value turn out when `FC(F)(F)c1cnc(C[C@@H]2NCCc3ccccc32)c(Cl)c1` was run?
The value was -2%.

How did the “% Inhibition” value turn out when `CCc1ccc(-c2cc3n(n2)C[C@@](C)(C(=O)NC2CCCCC2)N(c2cc(C)cc(C)c2)C3=O)cc1` was run?
Its value is 74%.
